From the supplement of paper PMC5895741

B1: MS2 coat protein; the commonest letter at each place (parent)
chain: MASNFTQFVLVDNGGTGDVTVAPSNFANGVAEWISSNSRSQAYKVTCSVRQSSAQNRKYTIKVEVPKVATQTVGGVELPVAAWRSYLNMELTIPIFATNSDCELIVKAMQGLLKDGNPIPSAIAANSGIY

Variants of: B1
Assay: apparent fitness score (VLP assembly selection enrichment vs plasmid library) (log10 ratio); higher = better expression / assembly into well-formed VLPs
Description: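 SyMAPS: NNK codon saturation mutagenesis of every codon of the MS2 bacteriophage coat protein (EMPIRIC cloning), expressed overnight in E. coli DH10B at 37 °C. Assembled VLPs were selected by ammonium sulfate precipitation plus FPLC size-exclusion chromatography, and the encapsidated RNA was sequenced. Apparent fitness score = log10 of the mean over 3 biological replicates of (percent abundance in the VLP library / percent abundance in the plasmid library). Variants absent after selection were set to 0.0001, i.e. -4.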
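Further: counts from Illumina MiSeq reads, cDNA of packaged RNA versus plasmid DNA taken before selection, each replicate independent from library construction onward, expression induced with 0.1% arabinose.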

| Variant | apparent fitness score (log10) |
| --- | --- |
| G15I | < -4 |
| I95L | -1.54 |
| I95Y | < -4 |
| I95Q | -0.991 |
| I95S | < -4 |
| D101P | -0.568 |
| M109L | 0.663 |
| M109A | 0.834 |
| N13M | 1.04 |
| N13P | -1.56 |
| N13S | -1.01 |
| Y43H | 0.108 |
| Y43T | < -4 |
| Y43I | < -4 |
| Y43F | 0.417 |
| Y43K | < -4 |
| L87I | < -4 |
| L87M | -1.17 |
| L87V | -0.403 |
| V68C | 0.597 |
| S24I | < -4 |
| S24C | -0.737 |
| V19T | -0.386 |
| V19S | -0.914 |

| Variant | apparent fitness score (log10) |
| --- | --- |
| V19A | -0.192 |
| V19M | -0.832 |
| V19C | -1.49 |
| V19R | -1.01 |
| G14Q | 0.673 |
| G14F | < -4 |
| G14C | -0.272 |
| I93N | -0.66 |
| I93S | -0.728 |
| I93H | -0.626 |
| I93W | -0.946 |
| S48I | < -4 |
| S100F | -0.906 |
| S100T | 0.549 |
| S100G | 0.57 |
| S52C | 0.751 |
| S52M | 0.138 |
| I119H | -0.452 |
| D18W | < -4 |
| D18P | -1.13 |
| V73S | 0.467 |
| V73H | 0.222 |
| V73W | 0.602 |
| V73M | 0.636 |

| Variant | apparent fitness score (log10) |
| --- | --- |
| F96D | < -4 |
| I123G | -1.53 |
| I123E | -1.37 |
| I123D | < -4 |
| V45H | < -4 |
| V45S | < -4 |
| I34P | < -4 |
| I34D | < -4 |
| I34Y | -0.122 |
| I34H | 0.553 |
| I34C | 0.786 |
| I34E | -1.19 |
| I34M | 0.0291 |
| I34N | -0.825 |
| Q55N | 0.331 |
| Q55L | -0.0154 |
| T70L | -0.626 |
| T70C | -0.576 |
| P79M | < -4 |
| K114V | -0.548 |
| K114L | < -4 |
| K114Y | -0.118 |
| K114T | -0.217 |
| K58W | < -4 |

| Variant | apparent fitness score (log10) |
| --- | --- |
| K58Y | < -4 |
| K58E | < -4 |
| Q51G | 0.582 |
| Q51T | -0.228 |
| Q51E | -0.263 |
| Q51V | -1.57 |
| Q51A | -0.41 |
| K67R | -1.36 |
| V11A | -0.883 |
| V11G | -1.39 |
| L10K | -0.515 |
| L10R | < -4 |
| N28D | 0.546 |
| V21W | 0.0657 |
| V21H | -0.933 |
| S40D | < -4 |
| I61Y | -0.837 |
| I61H | < -4 |
| Q41I | < -4 |
| Q41N | -0.701 |
| Q41W | -0.902 |
| Q41D | -1.51 |
| K62L | -0.918 |
| K62E | -0.586 |

| Variant | apparent fitness score (log10) |
| --- | --- |
| K62F | -1.1 |
| C47Q | < -4 |
| C47V | 1.03 |
| C47T | -0.243 |
| Y59E | -1.13 |
| Y59S | -1.36 |
| Y59C | -1 |
| Y59W | -0.299 |
| Y59V | -0.826 |
| L113K | -1.55 |
| L113I | 0.66 |
| L113F | -0.201 |
| R50S | -0.178 |
| R50D | < -4 |
| V63Q | 0.223 |
| V63M | 0.902 |
| K44M | -0.632 |
| K44H | < -4 |
| K44N | < -4 |
| K44L | -0.00397 |
| T60Y | 0.512 |
| T60A | 0.391 |
| T60Q | 0.492 |
| S3T | 1.14 |

| Variant | apparent fitness score (log10) |
| --- | --- |
| S3G | 0.319 |
| S53H | < -4 |
| S53R | -1.06 |
| S53K | < -4 |
| A27Y | -0.786 |
| A27F | -0.163 |
| A27R | < -4 |
| N117M | < -4 |
| N117W | -0.215 |
| N117S | -0.212 |
| N117C | < -4 |
| N37R | -0.882 |
| N37A | 1.06 |
| N37D | < -4 |
| A31H | < -4 |
| A31L | < -4 |
| A31I | < -4 |
| A124G | 0.703 |
| A124F | -1.53 |
| A124S | 0.991 |
| E32Y | < -4 |
| E32D | -0.569 |
| E32P | < -4 |
| E32H | < -4 |

| Variant | apparent fitness score (log10) |
| --- | --- |
| A69H | -0.706 |
| A69I | < -4 |
| P66K | -1.64 |
| P66D | -1.01 |
| P66I | -0.773 |
| V49A | 0.285 |
| V49Q | -0.408 |
| V49E | -0.766 |
| V49G | < -4 |
| P23N | -0.213 |
| P23S | -1.56 |
| P23G | -1.17 |
| P23H | -0.707 |
| V30S | < -4 |
| V30Y | < -4 |
| F26M | -0.00983 |
| F26Y | 0.746 |
| T98C | 0.394 |
| P94W | -1.62 |
| P94V | -1.13 |
| N4M | -0.0268 |
| N4F | < -4 |
| N4L | -0.631 |
